Measured values published in publication PMC4336329 (PLoS ONE, 2015).
Screen size: about 310,000 compounds; about 2,200 (0.71%) showed an effect of 50% or more. The effect is printed as a negative number. This is one part of the list.

These molecules were tested against human ether-à-go-go-related gene (hERG) potassium channel (human, UniProt Q12809) (assay: primary screen, population patch clamp on CHO cells stably expressing hERG).
human ether-à-go-go-related gene (hERG) potassium channel, sequence (Q12809 whole entry, looked up): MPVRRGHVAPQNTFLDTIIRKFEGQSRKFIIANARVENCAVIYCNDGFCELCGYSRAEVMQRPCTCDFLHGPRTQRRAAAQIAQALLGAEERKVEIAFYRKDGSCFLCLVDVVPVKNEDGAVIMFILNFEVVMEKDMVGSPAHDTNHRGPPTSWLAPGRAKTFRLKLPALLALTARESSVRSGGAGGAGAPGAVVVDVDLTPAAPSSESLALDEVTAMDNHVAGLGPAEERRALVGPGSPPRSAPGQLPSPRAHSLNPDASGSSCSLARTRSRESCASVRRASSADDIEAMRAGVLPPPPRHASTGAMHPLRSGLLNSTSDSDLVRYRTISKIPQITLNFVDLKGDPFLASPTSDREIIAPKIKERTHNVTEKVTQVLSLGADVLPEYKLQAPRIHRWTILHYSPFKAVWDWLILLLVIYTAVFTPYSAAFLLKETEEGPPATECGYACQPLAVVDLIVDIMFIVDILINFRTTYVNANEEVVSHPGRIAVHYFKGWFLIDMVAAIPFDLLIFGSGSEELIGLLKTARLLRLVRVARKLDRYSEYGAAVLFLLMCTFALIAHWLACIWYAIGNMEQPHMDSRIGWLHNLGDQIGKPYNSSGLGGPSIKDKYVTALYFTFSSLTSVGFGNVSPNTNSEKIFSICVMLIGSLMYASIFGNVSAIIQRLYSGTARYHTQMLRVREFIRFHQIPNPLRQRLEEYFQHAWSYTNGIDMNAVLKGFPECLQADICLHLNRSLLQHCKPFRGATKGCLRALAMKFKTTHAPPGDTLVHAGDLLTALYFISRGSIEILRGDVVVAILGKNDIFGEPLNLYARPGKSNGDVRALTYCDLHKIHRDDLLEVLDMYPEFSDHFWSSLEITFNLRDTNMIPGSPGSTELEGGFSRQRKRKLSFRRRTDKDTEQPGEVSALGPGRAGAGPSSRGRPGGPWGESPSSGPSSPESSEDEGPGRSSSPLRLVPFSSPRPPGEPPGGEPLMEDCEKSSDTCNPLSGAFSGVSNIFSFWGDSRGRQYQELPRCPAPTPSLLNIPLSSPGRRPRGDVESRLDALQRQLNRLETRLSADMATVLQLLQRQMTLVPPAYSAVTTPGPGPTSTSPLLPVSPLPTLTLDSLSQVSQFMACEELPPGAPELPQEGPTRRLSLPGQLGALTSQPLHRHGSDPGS

| SMILES | hERG current change (%, negative = inhibition) at 1uM |
| --- | --- |
| O=C(O)CC/C(=C\c1ccc(Cl)c([N+](=O)[O-])c1)c1nc2ccccc2s1 | 4.52% |
| COC(=O)C1=C(c2ccc(OC)c(OC)c2)C[C@@H]2CC[C@H]1N2C(=O)NCc1ccco1 | 7.98% |
| Cc1ccccc1NC(=O)CC1SC(=Nc2ccc(O)cc2)NC1=O (stereo not shown) | 16.3% |
| Nc1ccc(CCN2CCN(c3cccc(C(F)(F)F)c3)CC2)cc1 | -27.7% |
| CCN(CC)S(=O)(=O)c1ccc(N2CCOCC2)c(NC(=O)c2ccc3c(c2)OCCO3)c1 | -4.45% |
| COc1ccc(CN(C(=S)Nc2ccccc2)C2CC(=O)N(c3ccccc3)C2=O)cc1 (stereo not shown) | 17.8% |
| O=C(CNS(=O)(=O)c1ccccc1)NCC(=O)OCc1ccc(Br)cc1 | 8.78% |
| Cc1nn(CC#N)c(=O)n1-c1ccc(Cl)cc1 | 9.9% |
| CC(C)CCNC(=O)C1CCN(c2nc3ccccc3o2)CC1 | -1.04% |
| CCS(=O)(=O)N1CCN(c2ccnc3cc(Cl)ccc23)CC1 | -67.4% |
| CC(C)CCN(CC(=O)NC1CCCC1)C(=O)C(=O)Nc1ccc2c(c1)OCCO2 | 7.55% |
| COc1ccccc1C1C2=C(N=C3SCC(=O)N31)c1ccccc1CC2 (stereo not shown) | 8.23% |
| CC(=O)Nc1cccc(Nc2nc(-c3ccccc3F)nc3ccccc23)c1 | 12.2% |
| COc1ccc(N(Cc2cc3ccc(C)cc3[nH]c2=O)S(=O)(=O)c2ccccc2)cc1 | 12.2% |
| Cc1ccc(CN2CCN(Cc3ccc4cccc(F)c4n3)CC2CCO)cc1 (stereo not shown) | -33% |
| C#CCNC(=O)C1=C[C@@H](c2ccccc2)C[C@@H](OCCCCO)O1 | 7.6% |
| CC(C)c1ccc(NC(=O)CSc2nc(=O)n(CCCN3CCOCC3)c3c2CCC3)cc1 | -8.72% |
| O=C(NNC(=S)NCc1ccc(Cl)cc1)c1ccc2c(c1)OCO2 | 7.29% |
| CCOC(=O)CSc1ccc2nnc(-c3ccncc3)n2n1 | -2.76% |
| O=C(CCC(=O)N(CC(=O)NC1CCCCC1)c1ccc2c(c1)OCCO2)Nc1ccccn1 | 11.6% |
| CCCN(CCC)C(=O)CC(c1ccccc1)c1cc(C)ccc1O (stereo not shown) | -3.91% |
| O=C(Nc1ccc(-c2nc3cccnc3s2)cc1)c1ccco1 | 11.5% |

| SMILES | hERG current change (%, negative = inhibition) at 1uM |
| --- | --- |
| O=C(CC1Sc2ccccc2NC1=O)Nc1ccccc1[N+](=O)[O-] (stereo not shown) | 0.793% |
| COc1ccc(OC)c(Nc2cc(C)nc3nc(C)nn23)c1 | 2.63% |
| CCCCOc1cccc(C(=O)Nc2ccc(S(=O)(=O)Nc3nnc(CC)s3)cc2)c1 | 10.5% |
| CN(C)c1ccc(/C=N/NC(=O)c2ccc3c(c2)OCO3)cc1 | 1.12% |
| Cc1cc(C)c(NC(=O)CCCN2CCCC2)c(C)c1 | 15.5% |
| CC(=O)N1C(=O)C2(C(C#N)=C(N)Oc3c2c(C)nn3-c2ccccc2)c2ccccc21 (stereo not shown) | 11% |
| CCc1cccc(C)c1NC(=S)NCc1ccc2c(c1)cc(C)n2C | 14.5% |
| CCCS(=O)(=O)c1c(S(=O)(=O)CCC)c2cnccn2c1C(=O)c1ccc(Cl)cc1 | -8.03% |
| O=C(O)c1ccccc1.OC(CNCC1CCCO1)Cn1c2ccccc2c2ccccc21 (stereo not shown) | 0.168% |
| CCOc1nc(Nc2ccc(OC)c(Cl)c2)nc(OCC)n1 | -2.79% |
| CC(C)(C)NC(=O)COC(=O)c1ccc(O)cc1 | 13.7% |
| COc1ccccc1CNS(=O)(=O)c1ccc2c(c1)CC(C)N2C(=O)C1CCC1 (stereo not shown) | 17.3% |
| COc1ccc2[nH]cc(CCNS(=O)(=O)Cc3ccccc3)c2c1 | 12.9% |
| CCOc1ccc(S(=O)(=O)NCCC(=O)NC2CCCCC2)cc1 | -3.36% |
| COc1cc(OC)c(OC)cc1CN1CCN(Cc2cccc(F)c2)CC1.O=C(O)C(=O)O | 8.99% |
| CCN(C(=O)CN1C(=O)NC(c2ccccc2)(c2ccc(C)c(C)c2)C1=O)C1CCS(=O)(=O)C1 (stereo not shown) | 4.47% |
| CC(=O)c1ccc(NC(=O)C(C)N2CCN(C/C=C/c3ccccc3)CC2)cc1 (stereo not shown) | -41% |
| CC(C)(C)c1ccc(S(=O)(=O)N2CCN(CC(O)COCC3CCCO3)CC2)cc1 (stereo not shown) | -12.1% |
| O=C(NCCC1=CCCCC1)C1CCN(S(=O)(=O)N2CCCC2)CC1 | 8.62% |
| COc1ccc(CN(CCN(C)C)c2ccccn2)cc1.O=C(O)/C=C\C(=O)O | -0.0995% |
| COc1ccccc1N1CCN(C(=O)/C=C/c2c(Cl)nc3ccccn23)CC1 | 5.66% |
| CCOn1c(=O)c[n+]([O-])c2ccccc21 | 12.8% |

| SMILES | hERG current change (%, negative = inhibition) at 1uM |
| --- | --- |
| CC(=O)Nc1ccc(S(=O)(=O)NCCSCc2ccco2)cc1 | 1.25% |
| COc1ccccc1NC(=O)COc1ccccc1 | 15.6% |
| CN(C)C1=NCCN1CCCCc1ccccc1 | 0.122% |
| CCn1c(CSc2nc3ccccc3s2)n[nH]c1=S | 14.4% |
| CCOC(=O)Cc1cc(=O)[nH]c(/N=C(\N)Nc2ccc(OC)cc2)n1 | 10.8% |
| O=C(N/N=C/c1cn[nH]c1-c1ccc(F)cc1)c1ccncc1 | 11.6% |
| N#CCCCSc1nnc(-c2ccc(Cl)cc2)n1-c1ccccc1 | 4.89% |
| CC1(C)Cc2c(cnn2-c2cccc(F)c2)C(NC(=O)CSc2ccncc2)C1 (stereo not shown) | -11.4% |
| CCOC(=O)C1(CCSC)NC(c2ccco2)C2C(=O)N(C)C(=O)C21 (stereo not shown) | 15.1% |
| COc1ccc2cc(-c3[nH]ncc3CN3C[C@@H]4CCC[C@H]3C4)ccc2c1 | -10.1% |
| CCN(CC(=O)Nc1ccc(NC(C)=O)cc1)C(=O)c1ccccc1SCC(=O)N1CCCC1 | 13% |
| COC(=O)CN1C(=O)N/C(=C/c2cc(OC)c(OC)cc2C)C1=O | 9.27% |
| Cc1ccc(C(=O)NCc2ccc3c(c2)OCO3)cc1C | 15.4% |
| CCC(C)c1c(O)nc(SCC(=O)N2CCOCC2)[nH]c1=O (stereo not shown) | 3.49% |
| Cc1ccc2oc(-c3cccc(N)c3)nc2c1 | 16.4% |
| CC(=O)[C@@H]1[C@@H](C(=O)c2ccc(C)cc2)[C@]2(C(=O)Nc3ccccc32)[C@H]2C=Cc3cc(F)ccc3N12 | 13.9% |
| Cc1ccc(C(=O)Nc2sc3c(c2C#N)CCCCC3)cc1C | 0.327% |
| Cc1nonc1NC(=O)CSc1nc2ccc(Cl)cc2[nH]1 | 9.93% |
| COc1cccc(NC(=O)C(OC(=O)c2cnc(C)cn2)c2ccccc2)c1 (stereo not shown) | 18.5% |
| O=C(Nc1ccc(S(=O)(=O)Nc2cnc3ccccc3n2)cc1)c1ccc(F)cc1 | 7.17% |
| Cc1ccc(CSc2ncnc3onc(C)c23)cc1 | 12.4% |
| O=C(O)[C@@H](O)c1ccccc1 | 10.6% |

| SMILES | hERG current change (%, negative = inhibition) at 1uM |
| --- | --- |
| Cc1ccc(C)c(-n2c(Cc3cc(=O)[nH]c(=O)[nH]3)nnc2SCC(=O)NCC2CCCO2)c1 (stereo not shown) | 8.54% |
| CCCNC(=O)Nc1ccccc1C(=O)Nc1ccc(OC)cc1 | 5.37% |
| O=C(CSCc1ccccc1)N/N=C/c1ccc(OCC(=O)N2CCCCC2)cc1 | 8.86% |
| Cc1onc(-c2ccc3c(c2)OCO3)c1-c1ccc2[nH]ccc2c1 | 1.52% |
| Cn1c(Cn2c(=O)sc3ccccc32)nnc1SCC(=O)NCC1CCCO1 (stereo not shown) | 11.3% |
| CC(C)CN(C(=O)COC(=O)c1ccc(-c2ccccc2)cc1)C1CCS(=O)(=O)C1 (stereo not shown) | 4.42% |
| O=C(NC1CCN(Cc2nnnn2CCc2ccccc2)CC1)c1ccccc1F | 8.6% |
| Cc1ccc(OCC(=O)NCCO)c(Br)c1 | 11.3% |
| Cc1ccc(OCC(=O)NC2CCS(=O)(=O)C2)c([N+](=O)[O-])n1 (stereo not shown) | 16.7% |
| CN(C)c1ccc(C2/C(=C(/O)c3ccccc3)C(=O)C(=O)N2CCCC(=O)O)cc1 (stereo not shown) | 4.49% |
| CCC1(C)Cc2c(sc3nn[nH]c(=O)c23)CO1 (stereo not shown) | 2.53% |
| CS(=O)(=O)N(CC(N)=O)Cc1ccc(Cl)cc1 | 1.43% |
| COc1ccc(C(=O)Nc2cnccn2)cc1[N+](=O)[O-] | 12.2% |
| O=S(=O)(NC1CCCCC1)c1ccc(Cl)nc1 | 7.56% |
| COc1ccc(C2=NN(C(=O)CSc3ncccn3)C(c3ccc(OC)cc3)C2)cc1 (stereo not shown) | 2.55% |
| CS(=O)(=O)c1ccc2nc(NC(=O)C3CCCO3)sc2c1 (stereo not shown) | 4.57% |
| CN(C(=S)Nc1ccccc1F)C1(c2ccccc2Cl)CCCCC1=O (stereo not shown) | 1.76% |
| COc1cccc(/C=C/C(=O)NCCc2ccc(OC)c(OC)c2)c1 | 5.32% |
| O=C(OCc1c(-c2ccccc2)ncc2ccccc12)c1cccc(Br)c1 | 4.74% |
| CCC(C)n1c(O)c(C(c2ccccn2)c2c(O)n(C(C)CC)c(=S)[nH]c2=O)c(=O)[nH]c1=S (stereo not shown) | 9.43% |
| O=C(NCc1ccccc1)c1ccccc1-c1nc2ccccc2[nH]1 | 14.8% |
| c1ccn2cc(CSC3=NCCS3)nc2c1 | 18.9% |
